Source: paper PMC4336329 (PLoS ONE, 2015)
Among all 310,000 compounds or so, about 2,200 (0.71%) showed an effect of 50% or more. The effect is printed as a negative number. Some of the results follow.

Target: human ether-à-go-go-related gene (hERG) potassium channel (human, UniProt Q12809)
Assay: primary screen, population patch clamp on CHO cells stably expressing hERG

Sequence of human ether-à-go-go-related gene (hERG) potassium channel (Q12809 whole entry, looked up): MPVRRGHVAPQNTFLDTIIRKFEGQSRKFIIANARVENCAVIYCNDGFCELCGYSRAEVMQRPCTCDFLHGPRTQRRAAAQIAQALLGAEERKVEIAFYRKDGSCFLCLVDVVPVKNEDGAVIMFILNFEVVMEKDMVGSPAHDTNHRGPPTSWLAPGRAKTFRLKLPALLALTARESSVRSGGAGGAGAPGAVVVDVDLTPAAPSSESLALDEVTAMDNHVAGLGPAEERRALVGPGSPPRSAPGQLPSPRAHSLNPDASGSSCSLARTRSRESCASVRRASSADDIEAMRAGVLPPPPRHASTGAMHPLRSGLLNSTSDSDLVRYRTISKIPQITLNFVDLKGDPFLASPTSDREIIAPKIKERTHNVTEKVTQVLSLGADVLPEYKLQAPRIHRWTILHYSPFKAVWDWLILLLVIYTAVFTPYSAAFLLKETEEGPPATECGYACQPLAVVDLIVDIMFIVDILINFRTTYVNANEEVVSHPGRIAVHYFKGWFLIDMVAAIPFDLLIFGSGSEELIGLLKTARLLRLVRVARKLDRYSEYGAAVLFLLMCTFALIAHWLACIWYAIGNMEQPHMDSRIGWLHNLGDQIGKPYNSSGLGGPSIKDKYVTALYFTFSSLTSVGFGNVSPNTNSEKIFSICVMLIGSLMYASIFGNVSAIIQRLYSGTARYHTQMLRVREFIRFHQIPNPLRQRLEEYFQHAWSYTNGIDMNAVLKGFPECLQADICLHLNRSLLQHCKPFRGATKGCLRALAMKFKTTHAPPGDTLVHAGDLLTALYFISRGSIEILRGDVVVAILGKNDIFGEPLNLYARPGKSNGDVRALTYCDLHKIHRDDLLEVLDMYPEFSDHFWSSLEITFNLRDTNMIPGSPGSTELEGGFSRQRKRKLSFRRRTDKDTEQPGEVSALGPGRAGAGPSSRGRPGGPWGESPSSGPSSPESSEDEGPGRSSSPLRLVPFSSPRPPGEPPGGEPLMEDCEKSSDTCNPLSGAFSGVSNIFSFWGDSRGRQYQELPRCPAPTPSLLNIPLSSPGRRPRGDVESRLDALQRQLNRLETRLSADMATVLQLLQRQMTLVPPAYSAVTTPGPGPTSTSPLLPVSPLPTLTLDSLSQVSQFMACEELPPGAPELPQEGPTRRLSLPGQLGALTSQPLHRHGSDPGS

First: O=C(OCC(=O)N1CCCC1=O)c1nc(Cl)c(Cl)c(Cl)c1Cl
Second: CCCn1c(N)c(N(CCOC)C(=O)C2CCCC2)c(=O)[nH]c1=O
The “hERG current change (%, negative = inhibition) at 1uM” value of the first is lower: -9.63% for the first, 10.5% for the second.

Compared with CCOC(=O)c1c(-c2ccccc2)nc2ccc(Cl)cn12, CN(C)c1oc(-c2ccc(Cl)cc2)nc1S(=O)(=O)c1ccccc1 is lower in “hERG current change (%, negative = inhibition) at 1uM” value: 20.4% for the first, 13.2% for the second.

Going from Cc1ccc(S(=O)(=O)N2CCCCC2)cc1NC(=O)CSc1ncccn1 to CCSc1oc(-c2cccs2)nc1S(=O)(=O)c1ccccc1, the “hERG current change (%, negative = inhibition) at 1uM” value rises from 12.3% to 14.9%.

Going from CN(C)C(=O)C[n+]1ccc(C(N)=O)cc1.[Cl-] to CCCC(CCC(=O)Nc1ccc(S(N)(=O)=O)cc1)C(=O)O (stereo not shown), the “hERG current change (%, negative = inhibition) at 1uM” value rises from 9.46% to 12.4%.

First: O=C(N/N=C1\C2CN3CCN(C2)CC1(c1ccccc1)C3)c1ccc(F)cc1
Second: C[C@@H](NC(=O)Cn1ccc(N)nc1=O)c1cccc2ccccc12
The “hERG current change (%, negative = inhibition) at 1uM” value of the first is lower: 9.45% for the first, 11.9% for the second.

Compared with COc1ccccc1N1CCN(CCCNc2cc(=O)n(C)c(=O)n2C)CC1.Cl, COc1ccc(CN(C)C(=O)c2cccc(NS(=O)(=O)c3ccccc3)c2)c(OC)c1 is higher in “hERG current change (%, negative = inhibition) at 1uM” value: -1.06% for the first, 8.52% for the second.

Compared with CNC(=S)N1CCC(Cc2ccccc2)CC1, Cc1cccc(C)c1NC(=S)N(Cc1ccccc1)Cc1cccnc1 is higher in “hERG current change (%, negative = inhibition) at 1uM” value: 7.59% for the first, 16.2% for the second.

Going from CC1c2ccccc2SC(CCCN(C)C)c2ccccc21.O=C(O)/C=C\C(=O)O (stereo not shown) to Cc1ccccc1OCC(=O)OCC(=O)NCc1cccs1, the “hERG current change (%, negative = inhibition) at 1uM” value falls from 7.95% to 7.32%.

Going from COc1ccc(S(=O)(=O)Nc2cccc(/C=C/C(=O)O)c2)cc1 to CS(=O)(=O)Nc1cccc(C2=NN(C(=O)c3ccco3)C(c3cccs3)C2)c1 (stereo not shown), the “hERG current change (%, negative = inhibition) at 1uM” value falls from 14.9% to -13.4%.

Going from Cc1ccc(-c2cc(C(F)(F)F)n3ncc(C(=O)N4CCN(C)CC4)c3n2)cc1 to Cc1noc(C)c1COC(=O)c1ccc(-c2nc3ccccc3s2)s1, the “hERG current change (%, negative = inhibition) at 1uM” value rises from 0.779% to 12.2%.

Going from Cc1ccc(C2(C)NC(=O)N(CC(=O)N(C)CC(=O)Nc3cccc4ccccc34)C2=O)cc1 (stereo not shown) to O=C(Nc1ncc2c(n1)CC(c1cccc(Cl)c1)CC2=O)c1ccco1 (stereo not shown), the “hERG current change (%, negative = inhibition) at 1uM” value falls from 9.34% to -8.8%.

First: CC1=C([N+](=O)[O-])C(c2ccc(Cl)cc2)NC(=O)N1C (stereo not shown)
Second: COc1cc(C2NCCC(=O)C2(C)C)cc(OC)c1OC.Cl (stereo not shown)
The “hERG current change (%, negative = inhibition) at 1uM” value of the first is lower: 1.93% for the first, 6.11% for the second.

With CCOC(=O)Cc1csc(NC(=O)Nc2cccs2)n1 the “hERG current change (%, negative = inhibition) at 1uM” value was 12%.
